Values of other authors in paper PMC11006913.
Residue numbers refer to the chain shown, from its start. The list shows a part of the results.

Key:
Details in all cases: PBM; conditions not shown; double strand, one strand shown; scale: upbm affinity estimate (log intensity, higher = more binding, comparable within an allelic series)
ISX (Homo sapiens) = ISX (Homo sapiens) (UniProt Q2M1V0)
[1] = molecular target: HOXD13 R306W (Homo sapiens) (UniProt P35453)
[2] = molecular target: HOXD13 S316C (Homo sapiens) (UniProt P35453)
PBX4 (Homo sapiens) = molecular target: T1, PBX4 (Homo sapiens) (UniProt Q9BYU1)
T1 sequence: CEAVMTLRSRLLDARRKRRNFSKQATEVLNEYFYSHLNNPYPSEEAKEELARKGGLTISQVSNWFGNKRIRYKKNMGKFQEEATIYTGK

[3] = molecular target: T2, PBX4 R215Q (Homo sapiens) (UniProt Q9BYU1)
T2 sequence: T1 sequence with R19Q

[4] = molecular target: PITX2 L100Q (Homo sapiens) (UniProt Q99697)
[5] = molecular target: PITX2 R108H (Homo sapiens) (UniProt Q99697)
[6] = molecular target: PITX2 R130W (Homo sapiens) (UniProt Q99697)
[7] = molecular target: PITX2 T114P (Homo sapiens) (UniProt Q99697)
ISX R83Q (Homo sapiens) = ISX R83Q (Homo sapiens) (UniProt Q2M1V0)

AATAGTTA [8-mer AATAGTTA]
binding signal (ISX (Homo sapiens)): 12.1

AGTGTTAT [8-mer AGTGTTAT]
binding signal (ISX (Homo sapiens)): 10.9

CACCTGTC [8-mer CACCTGTC]
binding signal [1]: 10.4

CCATAATC [8-mer CCATAATC]
binding signal (ISX (Homo sapiens)): 12

CACATTAA [8-mer CACATTAA]
binding signal (ISX (Homo sapiens)): 12.7

AATATAGG [8-mer AATATAGG]
binding signal (ISX (Homo sapiens)): 11.1

ATTACTCC [8-mer ATTACTCC]
binding signal (ISX (Homo sapiens)): 12.2

ACATGTCA [8-mer ACATGTCA]
binding signal [1]: 10.3 | binding signal [2]: 10.6 | binding signal (PBX4 (Homo sapiens)): 11.1 | binding signal [3]: 10.3

TGTTATAA [8-mer TGTTATAA]
binding signal (ISX (Homo sapiens)): 11.4

ACAATAAC [8-mer ACAATAAC]
binding signal (ISX (Homo sapiens)): 11.5

AGTTAATA [8-mer AGTTAATA]
binding signal [2]: 12.1

AATTCTAA [8-mer AATTCTAA]
binding signal (ISX (Homo sapiens)): 11.7

AATGATCG [8-mer AATGATCG]
binding signal (ISX (Homo sapiens)): 11.3

AATGAGTC [8-mer AATGAGTC]
binding signal (ISX (Homo sapiens)): 11.7

AGATTGGG [8-mer AGATTGGG]
binding signal (ISX (Homo sapiens)): 11.1

GATAACTA [8-mer GATAACTA]
binding signal (ISX (Homo sapiens)): 11.7

CTTGTTTA [8-mer CTTGTTTA]
binding signal (ISX (Homo sapiens)): 11

GTCAATGA [8-mer GTCAATGA]
binding signal (ISX (Homo sapiens)): 11.2

AAAATCAA [8-mer AAAATCAA]
binding signal (ISX (Homo sapiens)): 11.1

GAATCATC [8-mer GAATCATC]
binding signal (ISX (Homo sapiens)): 10.8

TTATGCAA [8-mer TTATGCAA]
binding signal (ISX (Homo sapiens)): 11.2

ACAACTTA [8-mer ACAACTTA]
binding signal (ISX (Homo sapiens)): 11.3

TTAGATAA [8-mer TTAGATAA]
binding signal (ISX (Homo sapiens)): 11.6

GATAATCC [8-mer GATAATCC]
binding signal [1]: 10.5 | binding signal [4]: 11.5 | binding signal [5]: 9.66 | binding signal [6]: 8.52 | binding signal [7]: 10.1

GACATTAA [8-mer GACATTAA]
binding signal (ISX (Homo sapiens)): 12.5

AATTTATG [8-mer AATTTATG]
binding signal [1]: 11.5 | binding signal [2]: 12.1

ACTTATTG [8-mer ACTTATTG]
binding signal (ISX (Homo sapiens)): 12.1

GGCATTTA [8-mer GGCATTTA]
binding signal (ISX (Homo sapiens)): 11.2

GTTACTTA [8-mer GTTACTTA]
binding signal (ISX (Homo sapiens)): 11.4

CACATTTA [8-mer CACATTTA]
binding signal (ISX (Homo sapiens)): 11.4

AATGAGAT [8-mer AATGAGAT]
binding signal (ISX (Homo sapiens)): 11.9

TGCTATAA [8-mer TGCTATAA]
binding signal (ISX (Homo sapiens)): 10.9

CCGGTCCG [8-mer CCGGTCCG]
binding signal (ISX (Homo sapiens)): 9.79 | binding signal (ISX R83Q (Homo sapiens)): 9.78

CCAGTGGG [8-mer CCAGTGGG]
binding signal (ISX (Homo sapiens)): 9.75 | binding signal (ISX R83Q (Homo sapiens)): 9.82

CCCTGGCG [8-mer CCCTGGCG]
binding signal (ISX (Homo sapiens)): 9.67 | binding signal (ISX R83Q (Homo sapiens)): 9.67

GAGCGCCC [8-mer GAGCGCCC]
binding signal (ISX (Homo sapiens)): 9.62 | binding signal (ISX R83Q (Homo sapiens)): 9.62

ACCTGGGC [8-mer ACCTGGGC]
binding signal (ISX (Homo sapiens)): 9.75 | binding signal (ISX R83Q (Homo sapiens)): 9.62

GGGGCCCC [8-mer GGGGCCCC]
binding signal (ISX (Homo sapiens)): 9.67 | binding signal (ISX R83Q (Homo sapiens)): 9.69

GCGGAGCC [8-mer GCGGAGCC]
binding signal (ISX (Homo sapiens)): 9.74 | binding signal (ISX R83Q (Homo sapiens)): 9.75

CCCCATGC [8-mer CCCCATGC]
binding signal (ISX (Homo sapiens)): 9.69 | binding signal (ISX R83Q (Homo sapiens)): 9.75

AAGTAGCA [8-mer AAGTAGCA]
binding signal (ISX (Homo sapiens)): 11.3 | binding signal (ISX R83Q (Homo sapiens)): 10.5

CAGGCAGG [8-mer CAGGCAGG]
binding signal (ISX (Homo sapiens)): 9.68 | binding signal (ISX R83Q (Homo sapiens)): 9.86

ACGGAGGC [8-mer ACGGAGGC]
binding signal (ISX (Homo sapiens)): 9.8 | binding signal (ISX R83Q (Homo sapiens)): 9.77

CCGCAGCC [8-mer CCGCAGCC]
binding signal (ISX (Homo sapiens)): 9.8 | binding signal (ISX R83Q (Homo sapiens)): 9.78

CACGGCGG [8-mer CACGGCGG]
binding signal (ISX (Homo sapiens)): 9.65 | binding signal (ISX R83Q (Homo sapiens)): 9.73

CCATGCCC [8-mer CCATGCCC]
binding signal (ISX (Homo sapiens)): 9.81 | binding signal (ISX R83Q (Homo sapiens)): 9.76

CAGACCCC [8-mer CAGACCCC]
binding signal (ISX (Homo sapiens)): 9.52 | binding signal (ISX R83Q (Homo sapiens)): 9.73

GACGCGGC [8-mer GACGCGGC]
binding signal (ISX (Homo sapiens)): 9.75 | binding signal (ISX R83Q (Homo sapiens)): 9.77

GCCGGTCC [8-mer GCCGGTCC]
binding signal (ISX (Homo sapiens)): 9.66 | binding signal (ISX R83Q (Homo sapiens)): 9.62

GGGGGAAC [8-mer GGGGGAAC]
binding signal (ISX (Homo sapiens)): 9.6 | binding signal (ISX R83Q (Homo sapiens)): 9.59

ACACGTGT [8-mer ACACGTGT]
binding signal (ISX (Homo sapiens)): 9.85 | binding signal (ISX R83Q (Homo sapiens)): 9.83

GAAGGGGA [8-mer GAAGGGGA]
binding signal (ISX (Homo sapiens)): 9.77 | binding signal (ISX R83Q (Homo sapiens)): 9.79

CCGGCGAG [8-mer CCGGCGAG]
binding signal (ISX (Homo sapiens)): 9.76 | binding signal (ISX R83Q (Homo sapiens)): 9.8

GCTGGGCC [8-mer GCTGGGCC]
binding signal (ISX (Homo sapiens)): 9.61 | binding signal (ISX R83Q (Homo sapiens)): 9.61

CCTAATCA [8-mer CCTAATCA]
binding signal (ISX (Homo sapiens)): 13.4 | binding signal (ISX R83Q (Homo sapiens)): 11.8

GCCTGTCC [8-mer GCCTGTCC]
binding signal (ISX (Homo sapiens)): 9.83 | binding signal (ISX R83Q (Homo sapiens)): 9.8

CCCTGCGG [8-mer CCCTGCGG]
binding signal (ISX (Homo sapiens)): 9.78 | binding signal (ISX R83Q (Homo sapiens)): 9.73

CGACCGCC [8-mer CGACCGCC]
binding signal (ISX (Homo sapiens)): 9.56 | binding signal (ISX R83Q (Homo sapiens)): 9.66

CGGCGCGC [8-mer CGGCGCGC]
binding signal (ISX (Homo sapiens)): 9.67 | binding signal (ISX R83Q (Homo sapiens)): 9.71

CCCGCACC [8-mer CCCGCACC]
binding signal (ISX (Homo sapiens)): 9.82 | binding signal (ISX R83Q (Homo sapiens)): 9.73

TCCCGGGA [8-mer TCCCGGGA]
binding signal (ISX (Homo sapiens)): 9.95 | binding signal (ISX R83Q (Homo sapiens)): 9.78

CCCCGACC [8-mer CCCCGACC]
binding signal (ISX (Homo sapiens)): 9.8 | binding signal (ISX R83Q (Homo sapiens)): 9.76

GGCAGCCC [8-mer GGCAGCCC]
binding signal (ISX (Homo sapiens)): 9.77 | binding signal (ISX R83Q (Homo sapiens)): 9.74

CCGCACCC [8-mer CCGCACCC]
binding signal (ISX (Homo sapiens)): 9.82 | binding signal (ISX R83Q (Homo sapiens)): 9.79

CCGGGCGC [8-mer CCGGGCGC]
binding signal (ISX (Homo sapiens)): 9.68 | binding signal (ISX R83Q (Homo sapiens)): 9.8

CGAGCCGC [8-mer CGAGCCGC]
binding signal (ISX (Homo sapiens)): 9.81 | binding signal (ISX R83Q (Homo sapiens)): 9.72

AGCTGCCG [8-mer AGCTGCCG]
binding signal (ISX (Homo sapiens)): 9.77 | binding signal (ISX R83Q (Homo sapiens)): 9.82

CGAGCCCG [8-mer CGAGCCCG]
binding signal (ISX (Homo sapiens)): 9.84 | binding signal (ISX R83Q (Homo sapiens)): 9.78

AGGGGGCG [8-mer AGGGGGCG]
binding signal (ISX (Homo sapiens)): 9.54 | binding signal (ISX R83Q (Homo sapiens)): 9.68

CCCGCCCG [8-mer CCCGCCCG]
binding signal (ISX (Homo sapiens)): 9.69 | binding signal (ISX R83Q (Homo sapiens)): 9.71

CGCGCCCG [8-mer CGCGCCCG]
binding signal (ISX (Homo sapiens)): 9.81 | binding signal (ISX R83Q (Homo sapiens)): 9.84

CCGGGCTC [8-mer CCGGGCTC]
binding signal (ISX (Homo sapiens)): 9.68 | binding signal (ISX R83Q (Homo sapiens)): 9.7

CCCGACCC [8-mer CCCGACCC]
binding signal (ISX (Homo sapiens)): 9.58 | binding signal (ISX R83Q (Homo sapiens)): 9.66
